# PubChem BioAssay AID588579 (National Center for Advancing Translational Sciences (NCATS), 2011)
# In all, about 400,000 compounds went through this assay and about 2,200 (0.55%) were called active. The inconclusive results got no clear call from the source; some entries with a clear call stand among them for comparison. Calls follow the shape of the dose curve; as a rule, active = well fitted inhibition curve with a large enough effect; inconclusive = small, poorly fitted or top-dose-only effect, or another doubt; inactive = no such curve, though single readings can be large or run the other way. Where the call is inconclusive, the potency comes from a doubtful curve fit.
# Biological target: DNA polymerase kappa (Homo sapiens) (UniProt Q9UBT6)
# Sequence of UniProt Q9UBT6 (Q9UBT6 whole entry, looked up): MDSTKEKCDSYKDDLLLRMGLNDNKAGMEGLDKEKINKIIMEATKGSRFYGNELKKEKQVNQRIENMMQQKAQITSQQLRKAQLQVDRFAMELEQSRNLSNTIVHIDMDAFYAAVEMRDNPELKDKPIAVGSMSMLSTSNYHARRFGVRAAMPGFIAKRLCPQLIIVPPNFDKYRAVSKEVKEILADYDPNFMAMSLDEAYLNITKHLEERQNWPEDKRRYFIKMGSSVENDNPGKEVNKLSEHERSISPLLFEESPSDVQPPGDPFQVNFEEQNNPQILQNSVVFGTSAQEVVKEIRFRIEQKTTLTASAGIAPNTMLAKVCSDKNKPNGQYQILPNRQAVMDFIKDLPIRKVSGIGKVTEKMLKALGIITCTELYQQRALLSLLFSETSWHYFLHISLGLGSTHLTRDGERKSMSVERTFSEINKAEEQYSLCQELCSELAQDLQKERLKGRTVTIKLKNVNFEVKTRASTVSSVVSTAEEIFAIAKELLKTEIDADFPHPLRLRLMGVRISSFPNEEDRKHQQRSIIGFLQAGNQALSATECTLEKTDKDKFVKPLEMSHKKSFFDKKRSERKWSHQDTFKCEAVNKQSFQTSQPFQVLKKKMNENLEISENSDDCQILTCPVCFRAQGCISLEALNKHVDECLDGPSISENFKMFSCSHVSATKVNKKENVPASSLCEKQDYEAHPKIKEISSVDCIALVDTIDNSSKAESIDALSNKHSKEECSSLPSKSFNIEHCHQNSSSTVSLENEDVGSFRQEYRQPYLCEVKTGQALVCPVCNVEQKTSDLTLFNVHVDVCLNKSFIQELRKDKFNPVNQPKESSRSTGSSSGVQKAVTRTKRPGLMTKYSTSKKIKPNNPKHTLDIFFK
# Assay: qHTS for Inhibitors of Polymerase Kappa
# Settings: purified Pol kappa, fluorescent DNA synthesis assay, 10 min; series mostly up to 107 µM; activity, negative = inhibition: at the top concentration
# How it was run: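 50 nM final substrate added after 15 min RT preincubation of 10 nM Pol kappa with compound; fluorescence read at 0 and 10 min.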
# % is scaled to controls: 0 for no effect and ±100 for the full control effect; potency is read from the fitted curve at half-maximal effect; tags tell the direction and shape of the fitted curve.
Compound,Potency,"activity, negative = inhibition"
CC1CCc2nc3ccc(S(=O)(=O)N4CCC(C(=O)NCc5ccccc5Cl)CC4)cc3c(C(=O)O)c2C1 (centres undefined),"inconclusive: 100 µM [inhibitor, single point]",
CCNc1ccc(/C=C/c2ccnc3ccccc23)cc1,"inconclusive: 100 µM [inhibitor, partial curve, poor fit]",
Cc1ccc(OCC(=O)NNc2c3ccccc3nc3ccccc23)cc1,"inconclusive: 89.1 µM [inhibitor, single point]",
CC(=O)N1CCc2c(sc(NC(=O)c3ccc([N+](=O)[O-])o3)c2C#N)C1,"inconclusive: 79.4 µM [inhibitor, partial curve, poor fit]",
COc1cc2cc3c(N)c(C(=O)NCc4ccco4)sc3nc2cc1OC,"inconclusive: 50.1 µM [inhibitor, partial curve, poor fit]",
COC(C(=O)N/N=C(\C)c1ccc(C(C)(C)C)cc1)c1ccccc1 (centres undefined),,inactive: -8.65%
COc1cc(C(=O)N(CCCN(C)C)c2nc3c(OC)cccc3s2)cc(OC)c1OC,,inactive: -1.14%
CCCCOc1ccc(C(=O)N/N=C/c2ccc(OCCN3CCCCC3)c(OC)c2)cc1,"inconclusive: 56.2 µM [inhibitor, partial curve, poor fit]",
Nc1scc2c(C(=O)N/N=C/c3ccc(Cl)cc3)nn(-c3ccccc3)c(=O)c12,"inconclusive: 50.1 µM [inhibitor, partial curve, poor fit]",
COCCCNc1oc(-c2ccc(COc3ccccc3C)o2)nc1C#N,,inactive: -12.2%
COc1cccc(OCCn2c(-c3ccc(Cl)cc3)nc3ccccc3c2=O)c1,"inconclusive: 89.1 µM [inhibitor, single point]",
C/C=C/C=C/C(=O)N1CC2(CC(c3cccc(NC(=O)/C=C/C)c3)=NO2)C[C@@H]1C(N)=O (some centres undefined),"inconclusive: 79.4 µM [inhibitor, partial curve, poor fit]",
Cc1cc2nc3c(=O)n(Cc4ccccc4)c(=O)[nH]c3nc2cc1N,"inconclusive: 79.4 µM [inhibitor, partial curve]",
NC(=O)CCCCC(=O)OCCCc1cccs1,"inconclusive: 100 µM [inhibitor, single point]",
Cn1c(C(=O)NCCc2ccccc2)cc2cc(S(=O)(=O)N3CCCCC3)ccc21,,inactive: -12.1% [at 60.1 µM]
COc1ccccc1-c1nnc2n1N=C(c1ccc(O)c(O)c1)CS2,active: 25.1 µM,
COc1ccc2ncc3c(-c4ccccc4)nn(-c4ccc(C)c(C)c4)c3c2c1,"inconclusive: 89.1 µM [inhibitor, single point]",
O=C(O)c1cc(Cl)ccc1-c1ccc(/C=C/c2cc(C(F)(F)F)[nH]c(=O)n2)o1,"inconclusive: 89.1 µM [inhibitor, single point]",
CC(=O)c1ccc(N2CCN(C(=O)C3CCN(C(=O)Nc4ccccc4)CC3)CC2)cc1,,inactive: -6.69%
Nc1cc(-c2nn[nH]n2)ccc1F,"inconclusive: 89.1 µM [inhibitor, single point]",
COc1ccc(Cn2nc3n(c2=O)-c2ccccc2OC3)cc1,"inconclusive: 89.1 µM [inhibitor, partial curve, poor fit]",
COc1ccc(NC(=O)CCCCCN2C(=O)c3cccc([N+](=O)[O-])c3C2=O)c(OC)c1,"inconclusive: 89.1 µM [inhibitor, partial curve, poor fit]",

Compound,Potency,"activity, negative = inhibition"
COc1ccc(S(=O)(=O)NNC(=O)Cc2csc(C)n2)cc1[N+](=O)[O-],"inconclusive: 100 µM [inhibitor, partial curve, poor fit]",
CCN(CC)S(=O)(=O)c1ccc2c(c1)N(CC(=O)Nc1cccc(C(C)=O)c1)C(=O)CO2,,inactive: -4.46%
CCCCCCn1c(CN2CCN(C(=O)c3ccco3)CC2)nc2c1c(=O)n(C)c(=O)n2C,"inconclusive: 39.8 µM [inhibitor, single point]",
COC(=O)C(NNc1ccccc1)(NC(=O)c1ccc(F)cc1)C(F)(F)F (centres undefined),,inactive: -7.88%
CCC1(O)CC2CN(CCc3c([nH]c4ccccc34)[C@@](C(=O)OC)(c3cc4c(cc3OC)N(C)C3[C@]45CCN4CC=C[C@@](CC)([C@@H](OC(C)=O)[C@]3(O)C(=O)OC)[C@H]45)C2)C1 (some centres undefined),"inconclusive: 29.9 µM [inhibitor, partial curve, poor fit]",
CC1=C(C#N)c2nc(N)c(C#N)c(C)c2/C1=C\c1ccc(-c2ccccc2C(=O)O)o1,active: 22.4 µM,
O=c1[nH]c2ccc(S(=O)(=O)N3CCCCC3)cc2o1,"inconclusive: 89.1 µM [inhibitor, single point]",
COc1cc(/C=N/n2c(=S)[nH]nc(C)c2=O)cc([N+](=O)[O-])c1O,,inactive: -6.65%
Nn1c(SCC(=O)Nc2cc(C(F)(F)F)ccc2Cl)nncc1=O,"inconclusive: 89.1 µM [inhibitor, single point]",
CCc1cccc(NS(=O)(=O)c2c(C)[nH]c(=O)[nH]c2=O)c1,"inconclusive: 100 µM [inhibitor, single point]",
Cc1cc(NS(=O)(=O)c2ccc(Cl)cc2)nn1CC(=O)NCc1ccco1,"inconclusive: 89.1 µM [inhibitor, single point]",
N=C1/C(=C/c2ccc(-c3cccc(C(=O)O)c3)o2)C(=O)N=C2SC(CC(=O)N3CCOCC3)=NN12,"inconclusive: 44.7 µM [inhibitor, partial curve, poor fit]",
COc1nc(C)nc(Cl)c1NC1=NCCN1,inactive,
O=C(COC(=O)c1ccc(NS(=O)(=O)c2cccs2)cc1)Nc1nc2c(F)c(F)c(F)cc2s1,"inconclusive: 56.2 µM [inhibitor, partial curve, poor fit]",
Cc1cc(NC(=O)n2ncc3c(C)cccc32)ccc1Br,,inactive: -0.0639%
COc1ccc(NC(=O)/C(C#N)=C\c2ccc(-c3cccc(C(=O)O)c3C)o2)cc1,"inconclusive: 89.1 µM [inhibitor, partial curve]",
NCCS(=O)(=O)O,"inconclusive: 0.891 µM [inhibitor, full curve, poor fit]",
CCOc1ccccc1NC(=O)c1c(NC(=O)COc2ccccc2)sc2c1CCCC2,"inconclusive: 100 µM [inhibitor, partial curve, poor fit]",
CCOc1ccccc1/C=c1\sc2nc(-c3ccco3)nn2c1=O,active: 89.1 µM,
Cc1ccccc1Cn1cc(S(=O)(=O)CC(=O)Nc2nccs2)c2ccccc21,,inactive: -6.14% [at 60.1 µM]
Cc1cc(C)c(NC(=O)CSc2nnc(CN3CCOCC3)n2C)c(C)c1,"inconclusive: 89.1 µM [inhibitor, single point]",
COc1ccc(OC)c(N2C(=O)[C@@H]3C(c4ccccc4Cl)=NO[C@@H]3C2=O)c1,active: 20 µM,

Compound,Potency,"activity, negative = inhibition"
Cc1ccc(-c2cc(C(=O)Nc3ccc(SC(F)F)cc3)no2)cc1F,"inconclusive: 3.16 µM [inhibitor, partial curve, poor fit]",
O=C(c1cc(-c2cccnc2)nc2ccccc12)N1CCN(S(=O)(=O)c2cccs2)CC1,,inactive: 8.86%
COc1cc(/C=N\NC(=O)c2sc(N)nc2C)cc(OC)c1OC,"inconclusive: 89.1 µM [inhibitor, single point]",
COc1ccc(NC(=O)/C(C#N)=C\c2ccc(-c3cc(C(=O)O)ccc3C)o2)cc1,"inconclusive: 89.1 µM [inhibitor, single point]",
N#Cc1ccc(CSc2nnc(Cc3cccs3)n2Cc2ccco2)cc1,"inconclusive: 89.1 µM [inhibitor, single point]",
Cc1ccc(CNC(=O)Cn2c(=O)n(-c3ccc(C)cc3)c(=O)c3c2c2cc(C)ccc2n3C)cc1,"inconclusive: 89.1 µM [inhibitor, single point]",
COc1ccc(NC(=S)NNc2ccc(S(=O)(=O)Nc3ccccc3C(=O)O)cc2[N+](=O)[O-])cc1,"inconclusive: 89.1 µM [inhibitor, single point]",
O=c1cc(-c2ccccc2)oc2cc(O)c(O)cc12,active: 3.16 µM,
COc1ccc(OC)c(NC(=O)[C@H](CSCc2ccccc2)N2Cc3ccccc3C2=O)c1,,inactive: -8.61%
C/C(N)=C(/C#N)C(=O)CSc1nnc(Nc2c(C)cccc2C)s1,active: 79.4 µM,
O=C(CSc1nc(O)c(Cc2ccccc2)c(=O)[nH]1)Nc1nnc(SCc2ccccc2)s1,"inconclusive: 89.1 µM [inhibitor, single point]",
Cc1n[nH]c(=S)n(NC(=O)CC(=O)Nn2c(=S)[nH]nc(C)c2=O)c1=O,,inactive: -5.05%
COc1cc(/C=C2/C(=N)N3N=C(CC(=O)N4CCOCC4)SC3=NC2=O)ccc1OCc1ccccc1F,"inconclusive: 89.1 µM [inhibitor, single point]",
COCCNC(=O)Nc1ccc2nc(-c3ccco3)c(-c3ccco3)nc2c1,active: 3.16 µM,
O=C(O)CCCNc1cc(N2CCN(C(=O)c3ccco3)CC2)c2noc3c2c1C(=O)c1ccccc1-3,active: 31.6 µM,
O=C1c2cc(O)cc(O)c2C(=O)c2c1cc(O)c([C@@H](CO)CCO)c2O,active: 79.4 µM,
C/C(=N\NC(=O)CNC(=O)c1ccccc1F)c1ccco1,"inconclusive: 100 µM [inhibitor, single point]",
Cc1cccc(OCC(=O)Nc2nnc(S(=O)(=O)N3CCc4ccccc43)s2)c1,"inconclusive: 89.1 µM [inhibitor, partial curve, poor fit]",
C/C(CC(=O)N1CCN(C=O)CC1)=N\NC(=O)c1cc2ccccc2cc1O,"inconclusive: 89.1 µM [inhibitor, partial curve, poor fit]",
Cc1ccc(OCc2ccc([N+](=O)[O-])cc2)c([N+](=O)[O-])n1,"inconclusive: 100 µM [inhibitor, single point]",
